Data taken from publication PMC4336329 (PLoS ONE, 2015).
Hit rate of the full screen: of about 310,000 compounds, about 14,000 (4.5%) showed an effect of 50% or more. Effects have a minus sign here. This is one part of the list.

The compounds below were run against human ether-à-go-go-related gene (hERG) potassium channel (human, UniProt Q12809) (assay: primary screen, population patch clamp on CHO cells stably expressing hERG).
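Also: peak tail current of the secondary pulse compared with the same well before compound.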

Sequence of human ether-à-go-go-related gene (hERG) potassium channel (Q12809 whole entry, looked up): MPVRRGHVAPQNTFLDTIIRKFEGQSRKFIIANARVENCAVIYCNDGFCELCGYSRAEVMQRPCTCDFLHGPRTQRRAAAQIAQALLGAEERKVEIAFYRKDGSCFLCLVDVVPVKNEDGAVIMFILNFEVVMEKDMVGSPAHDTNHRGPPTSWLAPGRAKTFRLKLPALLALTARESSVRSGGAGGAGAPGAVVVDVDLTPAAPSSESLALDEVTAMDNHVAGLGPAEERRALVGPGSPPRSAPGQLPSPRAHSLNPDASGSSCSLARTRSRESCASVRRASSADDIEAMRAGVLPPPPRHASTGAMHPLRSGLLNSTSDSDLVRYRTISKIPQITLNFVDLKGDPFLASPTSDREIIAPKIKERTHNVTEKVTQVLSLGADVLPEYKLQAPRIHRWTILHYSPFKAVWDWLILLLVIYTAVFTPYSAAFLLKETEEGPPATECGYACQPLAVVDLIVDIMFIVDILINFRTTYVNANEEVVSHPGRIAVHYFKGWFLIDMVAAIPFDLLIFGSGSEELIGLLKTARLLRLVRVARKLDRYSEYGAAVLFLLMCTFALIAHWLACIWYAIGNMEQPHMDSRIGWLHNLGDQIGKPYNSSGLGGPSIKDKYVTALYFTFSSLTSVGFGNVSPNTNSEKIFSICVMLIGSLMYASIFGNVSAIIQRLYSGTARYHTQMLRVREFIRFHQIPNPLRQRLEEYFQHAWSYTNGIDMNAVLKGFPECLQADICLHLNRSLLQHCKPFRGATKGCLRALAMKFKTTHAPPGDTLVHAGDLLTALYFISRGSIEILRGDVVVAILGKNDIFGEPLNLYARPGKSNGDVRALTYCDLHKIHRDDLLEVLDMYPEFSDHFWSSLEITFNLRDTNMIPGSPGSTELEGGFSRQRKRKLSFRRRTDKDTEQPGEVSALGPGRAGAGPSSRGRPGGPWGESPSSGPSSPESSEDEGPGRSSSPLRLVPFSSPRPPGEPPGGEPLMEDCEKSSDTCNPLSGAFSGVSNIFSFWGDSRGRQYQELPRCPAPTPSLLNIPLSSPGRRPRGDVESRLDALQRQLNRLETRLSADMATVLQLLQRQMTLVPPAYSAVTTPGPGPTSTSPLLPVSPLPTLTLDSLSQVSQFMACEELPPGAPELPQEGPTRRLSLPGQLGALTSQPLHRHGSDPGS

| SMILES | hERG current change (%, negative = inhibition) at 10uM [%] |
| --- | --- |
| Cc1ccc(-n2nnnc2CSc2nnc(-c3ccc(O)cc3)o2)cc1 | -15.4 |
| CC(CN1CCN(C)CC1)OC(=O)c1ccc(F)cc1.Cl (stereo not drawn) | -6.99 |
| CC(C)CCNC(=O)C(c1ccncc1)N(C(=O)Cn1nnc(-c2ccc(F)cc2)n1)c1ccccc1F (stereo not drawn) | -24.2 |
| Cc1ccc(S(=O)(=O)/C(C#N)=C/c2c(N3CCN(Cc4ccccc4)CC3)nc3ccccn3c2=O)cc1 | 5.58 |
| COc1cc(OC)c(C2Nc3ccccc3NC3=C2C(=O)CC(C)(C)C3)cc1OC (stereo not drawn) | 8.16 |
| Cc1ccccc1NC1=NS(=O)(=O)c2ccccc21 | 4.25 |
| CN(C)n1cccc1/C=C(\C#N)S(=O)(=O)c1ccc(Cl)cc1 | 3.19 |
| Cc1cccc(N(CC(=O)NC2CCCCC2)C(=O)Cn2nnc(-c3ccc(C)o3)n2)c1 | 1.96 |
| Cn1c(SCC(=O)c2ccc3c(c2)OCCO3)nnc1C(F)(F)F | -18.6 |
| Cn1c(CC2C(=O)Nc3ccc(Br)cc32)nc2ccccc2c1=O (stereo not drawn) | -12 |
| Cl.c1ccc2c(c1)oc1c(NCCN3CCOCC3)ncnc12 | -5.4 |
| CCCCCC(=O)Nc1cccc(C2=NOC3(C2)C[C@H](C(N)=O)N(C(=O)c2ccccc2)C3)c1 (stereo partly drawn) | -6.55 |
| CC(C)(C)c1ccc(CS(=O)(=O)CC(O)CN2CCCC2=O)cc1 (stereo not drawn) | 22.3 |
| COc1cc(/C(C)=N/N2CCN(Cc3ccc(C)cc3)CC2)ccc1O | -44.3 |
| COc1ccc(NC(=O)c2cc(NC(=O)C3CCCCC3C(=O)O)ccc2N2CCOCC2)cc1 (stereo not drawn) | -40.5 |
| Cc1cccc(OCCSCc2nc3ccccc3[nH]2)c1 | -8.03 |
| Cl.NC1=NC2(CCCCC2)N(c2ccc(F)cc2)C(N)=N1 | -0.741 |
| CC(/C=C/c1ccco1)=N/NC(=O)OC(C)(C)C | 3.46 |
| CCc1nnc(NC(=O)CCC(=O)N2CCN(S(=O)(=O)c3cc(Cl)ccc3OC)CC2)s1 | -8.96 |
| FC(F)(F)c1nc(NCC2CCCO2)c2nnn(Cc3ccccc3Cl)c2n1 (stereo not drawn) | 4.47 |
| COc1ccccc1NC(=O)CCn1c(=O)c2cccn2c2ccccc21 | -8.61 |
| Cc1cc(C)nc(SCc2nnc(SCC(=O)Nc3c(C)cccc3C)o2)n1 | 4.72 |

| SMILES | hERG current change (%, negative = inhibition) at 10uM [%] |
| --- | --- |
| Cc1ccc(C(=O)NC(=S)Nc2cccc3c(C)cc(C)nc23)cc1 | 6.48 |
| O=C(CNC(=O)c1ccco1)Nc1ccc(F)c(Cl)c1 | 17.2 |
| O=C(O)COCC(=O)N1CCCN(c2ccc(C(F)(F)F)cn2)CC1 | 14.3 |
| CC(C)N(C(=O)CSc1nc2ccccc2n1Cc1ccc(F)cc1)C(C)C | -27.3 |
| O=C(CSc1ccc(-c2cccnc2)nn1)N1CCCCCC1 | 23.2 |
| Cc1cccc(NC(=O)CCc2c(C)nn(-c3ccc(N4CCCCC4)nn3)c2C)c1 | -4.76 |
| CCN1C(=O)c2cccc3c(S(=O)(=O)Nc4ccccc4O)ccc1c23 | 5.39 |
| CS(=O)(=O)c1ccc(C(=O)Nc2ccc(-c3nc4ccccc4[nH]3)cc2)cc1 | 19.3 |
| CC12CCC(C(=O)NNc3ccc([N+](=O)[O-])cc3)(OC1=O)C2(C)C (stereo not drawn) | -5.09 |
| COCCc1nnc(NC(=O)C(C)C)s1 | 7.35 |
| O=C(Nc1nc2ccccc2s1)Nc1ccc([N+](=O)[O-])cc1Cl | 26.6 |
| Cc1[nH]n(-c2nc(-c3ccc(Cl)cc3)cs2)c(=O)c1N=Nc1ccc(O)cc1 | 25.4 |
| Cc1ccc2nc3c(c(C(=O)OC4CCOC4=O)c2c1)CCCC3 (stereo not drawn) | -0.191 |
| Cc1ccccc1CNC(=O)CCn1nc(C)c2c(C)n(-c3ccccc3)nc2c1=O | 3.45 |
| COc1ccc(NC(=O)c2cccc(NC(=O)c3ccccc3)c2)c(OC)c1 | 13.7 |
| CCOC(=O)C(CC)(CC)C(=O)/C=C/c1ccc(OC)cc1 | -13.7 |
| CCC(C)NS(=O)(=O)c1ccc(S(=O)(=O)Nc2cc3c(cc2C(C)=O)OCO3)cc1 (stereo not drawn) | 11.2 |
| CC(=O)Oc1c(C)c(C)c2c(c1C)CCC(C)(CCCC(C)CCCC(C)CCCC(C)C)O2 (stereo not drawn) | 10.7 |
| OC(CNCCc1ccc(C(F)(F)F)cc1)COc1ccc2ccccc2c1 (stereo not drawn) | -46.5 |
| CC(C)=CC(=O)OCC(=O)Nc1cc(C)ccc1C | 27.6 |
| CN(C)S(=O)(=O)c1cccc(NC(=S)NCCCn2ccnc2)c1 | 0.565 |
| Cc1ccc(Cl)cc1NC(=S)N(CCCN1CCOCC1)Cc1ccccn1 | -34.3 |

| SMILES | hERG current change (%, negative = inhibition) at 10uM [%] |
| --- | --- |
| COc1ccccc1CNC(=O)C(c1ccccc1)c1ccccc1 | 18.6 |
| CC(NC(=O)/C(C#N)=C/c1ccc(N2CCOCC2)cc1)c1ccccc1 (stereo not drawn) | -43.3 |
| COC(=O)CN1C(=O)CC(C)(C)S(=O)c2ccccc21 (stereo not drawn) | -1.42 |
| CC(C)OC(=O)c1c(NC(=O)CCn2nnc3ccccc32)sc2c1CCCC2 | 24 |
| CC1(C(=O)O)CC(C)(C(=O)O)CC(C)(C(=O)O)C1 (stereo not drawn) | 19.2 |
| Cc1nc2ccccn2c1/C(O)=C1\C(=O)C(=O)N(CCN(C)C)C1c1ccco1 (stereo not drawn) | -20.2 |
| CC(Oc1ccccc1)C(=O)N=C1SC2CS(=O)(=O)CC2N1c1ccc(F)cc1 (stereo not drawn) | -11.2 |
| COc1ccc(C(=O)NCC(c2cccs2)N2CCOCC2)cc1OC (stereo not drawn) | -7.42 |
| CCOC(=O)c1cc(-c2ccc(OC)cc2F)nc2c1c(C)nn2CCC#N | -4.2 |
| Cc1nn(C)c(C)c1CN(C)C(=O)C1CCC(=O)N(C2CCCCCC2)C1 (stereo not drawn) | 13.8 |
| CCOC(=O)Oc1ccc(C(=O)OCCCN(C)C)cc1OC.Cl | -17.7 |
| COc1ccc(OCC(=O)Nc2ccc3c(c2)nc(CCN2CCCCC2)n3C)cc1 | -65.5 |
| O=C(Nc1ccc(O)cc1)N1CCOCC1 | 10.8 |
| CN(C(=O)COC(=O)C1=COCCO1)c1c(N)n(Cc2ccccc2)c(=O)[nH]c1=O | 17.8 |
| CCN(c1ccccc1)S(=O)(=O)c1ccc(OCC(=O)N2CCCC2)cc1 | -10.4 |
| CCn1c(SCC(=O)NC2CC2)nnc1-c1ccc(C)cc1 | 1.36 |
| COc1ccc(NC(=O)CSc2ccc(-c3ccco3)nn2)c(OC)c1 | 4.1 |
| Cc1cc(C)c(NC(=S)N(C)C)cc1C | 1.12 |
| COc1ccc(S(=O)(=O)N(C)c2ccc(C(=O)N3CCN(c4ccccc4)CC3)cc2)cc1OC | -41.2 |
| COc1cccc(Cn2cnc3c(N)c(C)c(C)cc32)c1 | -10 |
| OCC1(Cc2ccccc2)CCCN(Cc2ccc(-c3ccco3)cc2)C1 (stereo not drawn) | -5.88 |
| CC(C)c1ccc(/C=C/C(=O)Nc2nncs2)cc1 | 2.84 |

| SMILES | hERG current change (%, negative = inhibition) at 10uM [%] |
| --- | --- |
| COc1ccc(NC(=O)CN2C(=O)/C(=C3\SC(=S)N(CCC(=O)O)C3=O)c3ccccc32)cc1 | 16 |
| Cc1oc2c(c(C)cc3oc(=O)c(CC(=O)N[C@@H](C)C(=O)O)c(C)c32)c1C | 21.1 |
| C/C(=N\Nc1ccc(F)cc1F)c1ccc(N2CCOCC2)cc1 | 12.8 |
| COc1ccc(F)cc1S(=O)(=O)N1CCC2(CC1)OCCN2S(=O)(=O)c1cccs1 | -42.6 |
| O=C(CSc1nnnn1-c1ccc(F)cc1)NNC(=O)c1ccco1 | -5.99 |
| CC(=O)N1c2ccc(S(=O)(=O)N(C)CC(=O)NCc3ccc(C)cc3)cc2CC1C (stereo not drawn) | 19 |
| OCC[C@@H]1C[C@H](O)[C@@H](O)[C@]2(CCc3ccccc3CO2)O1 | 15.9 |
| Cc1ccc(OCC(=O)OCc2nc3scc(-c4ccccc4)c3c(=O)[nH]2)cc1C | 4.97 |
| O=C(Nc1ccc(Cl)c(S(=O)(=O)N2CCOCC2)c1)c1ccc(OCC2CCCO2)cc1 (stereo not drawn) | -6.57 |
| O=C1CCC(C(=O)OCC(=O)C23CC4CC(CC(C4)C2)C3)N1 (stereo not drawn) | -0.714 |
| Oc1ccc(N=C/C=C/c2cccc(Br)c2)cc1-c1nc2ccccc2s1 | 20.9 |
| CC(=O)NC1C(=O)Nc2c1cccc2C(F)(F)F (stereo not drawn) | 11.6 |
| O=C(NNC(=O)c1cccc(-n2cnnn2)c1)c1ccccc1 | 21.2 |
| Cl.Nc1cccc(Nc2ncnc3ccccc23)c1 | 14.2 |
| Cn1cc(C(=O)N/N=C/c2cccc(O)c2)ccc1=O | 14.2 |
| COc1ccc(NC(=O)CCN2C(=O)c3ccccc3C2=O)c(OC)c1 | 7.18 |
| Cc1cc(C(=O)O)cc(Br)c1N | 4.61 |
| Clc1cnc(Nc2cccnc2)c(Cl)c1 | -7.58 |
| CCOc1ccc(NC2CCCCC2NS(=O)(=O)c2ccccc2)cc1 (stereo not drawn) | -7.37 |
| Cc1ccc2c(C(=O)CN3CCN(C(=O)c4ccco4)CC3)c(C)[nH]c2c1 | -11.5 |
| CCN(CC)CCOC(=O)c1ccc(N=Cc2c(O)[nH]c(=O)[nH]c2=O)cc1 | -1.88 |
